Screen size: about 48,000 compounds; about 120 (0.25%) were called active. Roughly 4% stayed inconclusive and do not appear here. Calls come from the whole dose curve; as a rule, active = well fitted activation curve with a large enough effect; inconclusive = small, poorly fitted or top-dose-only effect, or another doubt; inactive = no such curve, though single readings can be large or run the other way. Some of the results follow.
Assay: Primary qHTS for Identification of Small Molecule Activators of Huntingtin-Antisense Promoter Activity; note: nearly all actives have a fitted effect of over 55% in size
Settings: HEK293 HTT-AS promoter firefly luciferase reporter, 24 h; series mostly up to 57.5 µM; activity change, positive = activation: at the top concentration
Procedure, shortened: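 Firefly luciferase signal from promoter-reporter HEK293 cells was scaled between vehicle (0%) and zero RLU (-100%). Compounds were tested at final concentrations of up to 57.5 uM over 24 h at 37 degrees C. PTC124 at 50 uM final served as control inhibitor.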

Activity change, positive = activation, inactive:
CCC(=O)N1CCc2cc(S(=O)(=O)CCC(=O)NCc3ccccc3OC)ccc21 -11.9%, CCNC(=O)Cc1ccc(NC(=O)N2CCCCc3ccccc32)cc1 4.56%, CCCn1c2ccccc2c2cnn(CC(=O)NCCc3ccc(OC)cc3OC)c(=O)c21 -12.9%, CCN(CC)c1nn2c(=O)c(C(=O)NCc3ccc(F)cc3)cnc2s1 -7.28%, O=C1c2ccccc2-c2n[nH]c3cccc1c23 -5.35%, Cc1nc(-c2ccccc2)sc1CCNS(=O)(=O)c1ccc(Br)cc1 -33.2%, O=C(c1ccc(OCCN2CCCCC2)cc1)c1c(-c2ccc(O)cc2)sc2cc(O)ccc12, CCn1nc(C)c(CCN(C)C(=O)Nc2cc(Cl)ccc2C)c1C 7.59%, COc1ccc(CC(=O)NCCc2csc(-c3ccc(Cl)cc3)n2)cc1 -34.5%, O=C(CC(NCc1cccnc1)C(=O)O)Nc1ccc(F)cc1 (stereo unspecified) -4.92%, CCCNC(=O)c1ccc(-n2c(-c3ccccc3)cc3c2CCC(C)C3)cc1 (stereo unspecified) -56.6%, CCOc1ccccc1NC(=O)c1c(NCc2sccc2C)sc2c1CCCCC2 -17.1%, C=Cc1ccc(Cn2c(C(=O)O)c(CNCc3cc(Br)ccc3OC)c3ccc(C)cc32)cc1 -5.71%, Cc1cccc(N2CCN(C(=O)CS(=O)(=O)c3cccc4nsnc34)CC2C)c1 (stereo unspecified) -19.6%, CCCN1C(=O)C2(c3ccccc31)c1c(oc3ccccc3c1=O)C(=O)N2CCO (stereo unspecified) -16.5%, NC(=O)CSc1ncc2c(n1)-c1ccccc1N(Cc1cccc(F)c1)S2(=O)=O 10.8%, COc1ccc2nc3oc(C(=O)NCc4ccccc4OC)cc3cc2c1 13.8%, COc1ccc(-c2noc(-c3nnn(-c4cc(C)ccc4C)c3N)n2)cc1 16.4%, COc1ccccc1-c1nnc(C2CCN(C(=O)c3ccc(C)cc3)CC2)o1 8.39%, Cc1ccc(-c2nc(CS(=O)CC(=O)N3CCN(c4ccc(Cl)cc4)CC3)c(C)o2)cc1 (stereo unspecified) -33.5%, CN(C)S(=O)(=O)c1ccc2c(c1)N(CC(=O)N1CCN(c3ccc(F)cc3)CC1)CCS2 -19.3%, CNC(=O)c1ccc(N2C(=S)N(c3cnc(C#N)c(C(F)(F)F)c3)C(=O)C23CCC3)cc1F -8.59%, CCN(CC)CCNC(=O)c1ccc(Cn2c(=O)c3cccn3c3cccnc32)cc1 -1.39%, Cc1ccc(-n2ncc(C(=O)NCCc3ccsc3)c2C2CCN(C(=O)OC(C)(C)C)CC2)cc1C -41.5%, Cc1cc(NC(=O)CSc2ncc(C(=O)Nc3ccc(F)cc3)c(=O)n2C)no1 -2.72%, Cc1nc2ccccc2c(=O)n1-c1ccc(NC(=O)C(F)(F)F)cc1 -7.73%, CCOc1ccccc1CNc1nc2nc(C)cc(C)n2n1 17%, CNC(=O)c1ccccc1Sc1ccc2c(/C=C/c3ccccn3)n[nH]c2c1 -11.6%, O=C(NCCCN1CCN(c2ccccc2)CC1)c1ccc2nc(Cc3ccccc3)oc2c1 -41.2%, Cc1ccc(Cn2c(C(C)NC(=O)c3ccccc3)nc3ccccc32)cc1 (stereo unspecified) -18.8%, CCOC(=O)c1c(C)[nH]c(CCC(=O)Nc2ccc(OC)c(OC)c2)c1C -16.9%, Cc1noc(C)c1S(=O)(=O)N1CCC(C(=O)N2CCN(c3cccc(C(F)(F)F)c3)CC2)CC1 -33.2%, CC(C)NC(=O)CCC(=O)N1Cc2ccccc2Oc2ncccc21 -4.78%, Cn1ccc2cc(S(=O)(=O)N3CCN(C(=O)Nc4ccc(F)cc4F)CC3)ccc21 -24.4%, CCC1CCCCN1C(=O)CSc1nc2c([nH]c3ccccc32)c(=O)n1-c1ccc(OC)cc1 (stereo unspecified) -28.1%, CC(CN1c2ccccc2Sc2ccccc21)N(C)C (stereo unspecified) -10.6%, COc1ccc(-c2cc3ccc(O)c(CN4CCC(C)CC4)c3oc2=O)cc1OC -3.58%, Cc1cccc(Cn2cccc2CNS(=O)(=O)c2ccc(Br)cc2)c1 -9.88%, COc1cc(-c2nnc(SCCOc3cc(C)cc(C)c3)o2)cc(OC)c1OC -5.13%, Cc1ccccc1CN1C(=O)c2ccccc2S(=O)(=O)c2ccc(C(=O)OCC3CCCO3)cc21 (stereo unspecified) -21.1%, Cc1ccc(C(C)C)c(OC(C)C(=O)NCC2(N(C)C)CCCCC2)c1 (stereo unspecified) -15.1%, COc1ccc(S(=O)(=O)Nc2cc(S(=O)(=O)c3ccccc3)c(O)c(C)c2C)cc1 -21.9%, Cc1cc(OC(C)C(=O)Nc2sc3c(c2C(N)=O)CCCC3)ccc1Cl (stereo unspecified) 5.27%, CC(NC(=O)CN1C(=O)c2cccnc2Oc2ccc(Cl)cc21)c1ccccc1 (stereo unspecified) -12.2%, COc1cccc(-c2nc(S(=O)(=O)c3ccc(C)cc3)c(N3CCCCC3)o2)c1 9.91%, COc1ccccc1CNC(=O)c1ccc2nc(CCc3ccccc3)oc2c1 -25.2%, COc1ccc(-c2nc(SCC(=O)Nc3c(C)cc(C)cc3C)n[nH]2)cc1 -17.6%, CCOC(=O)c1c(C)oc2ncnc(Nc3ccc(OC)c(OC)c3)c12 -22.6%, COc1ccc(Cn2c(=O)c3cccnc3n(Cc3cccc(F)c3)c2=O)cc1 -17.7%, COC(=O)c1ccc(C(=O)OC)c(NC(=O)c2ccc(-c3ccccc3)s2)c1 1.22%, CCOc1cc(N2CCC(O)CC2)ccc1Nc1ncc2c(n1)N(C)c1ccccc1C(=O)N2C -24.6%, CCOC(=O)c1ccccc1NC(=O)CSc1nccn1Cc1ccco1 -3.1%, COc1ccccc1NC(=O)c1c(C)cc(C)nc1SCC(=O)c1ccc(Cl)cc1 -17.5%, CC(C)Oc1ccc(C(=O)N(Cc2ccco2)Cc2cccs2)cc1 -25.2%, O=C(CSc1ncc(S(=O)(=O)c2ccc(Cl)cc2)c(=O)[nH]1)Nc1cccc(C(F)(F)F)c1 -1.68%, Cc1cccc(C)c1NC(=O)c1sc(-n2nc(C)c(Cc3ccccc3)c2C)nc1C 0.77%, Cc1cc(OCC(=O)N(Cc2ccc(N(C)C)cc2)CC2CCCO2)ccc1Cl (stereo unspecified) -19.2%, COc1ccc(-c2cc3nc(C)c(CCC(=O)NC4CCCCC4)c(C)n3n2)c(OC)c1 -6.4%, COC(=O)c1nnn(CC(=O)NC(=O)Nc2c(C)cccc2C)c1C(=O)OC -14.9%, COc1ccc(C2CC(=O)c3cc(-c4nc(-c5ccc(Cl)cc5)cs4)c(=O)[nH]c3C2)cc1OC (stereo unspecified) -19.3%, NS(=O)(=O)c1ccc(NC(=O)C2Cc3ccccc3N2C(=O)c2ccccc2)cc1 (stereo unspecified) -12.6%, CCn1cc(C(=O)N2CCN(c3cccc(C)c3C)CC2)c2cc(OC)c(OC)cc2c1=O -18.5%, CCCCN(CC)CCCNC(=O)c1nn(C)c2c1CSc1ccccc1-2 -0.104%, Cc1ccccc1C(=O)n1nc(-c2cccnc2)nc1NCc1ccccc1 -27.2%, COc1ccc(OC)c(CCNC(=O)Cn2ncc3c([nH]c4ccccc43)c2=O)c1 -3.82%, CCn1cc2nc(SCC(=O)Nc3ccccc3C(F)(F)F)n(Cc3ccc(C)cc3)c(=O)c2n1 -45.2%, COCCCNC(=O)CCC(=O)NNc1nc2ccccc2c2nc(C)nn12 -9.24%, COc1ccc(N2CC(NC(=O)C(c3ccccc3)c3ccccc3)CC2=O)cc1OC (stereo unspecified) -14.4%, COc1ccccc1CNS(=O)(=O)c1cnc(N)nc1 -10.5%, CC[C@@]1([C@@H]2O[C@@H]([C@H]3O[C@@](O)(CO)[C@H](C)C[C@H]3C)C[C@H]2C)CC[C@H]([C@]2(C)CC[C@]3(C[C@H](O)[C@@H](C)[C@@H]([C@@H](C)[C@@H](OC)[C@H](C)C(=O)O)O3)O2)O1 -37.3% [at 25.1 µM, percent change from vehicle, -100% = no light], COc1ccc(C2c3c(n(C)c4ccccc34)C(=O)N2CC(=O)Nc2cccc(F)c2)cc1 (stereo unspecified) -24.5%, COc1ccc(NC(=O)c2oc3ccc(S(=O)(=O)N4CCOCC4)cc3c2C)cc1 -28.4%, Cc1ccc(N2CC(C)Cn3c2nc2c3c(=O)n(Cc3cccc(Cl)c3)c(=O)n2C)cc1 (stereo unspecified) -5.66%, CCCc1cc(=O)[nH]c2nnc(SCC)n12 8.21%, O=c1oc2ccc3ccccc3c2cc1-c1nnc(Nc2ccc(F)cc2)s1 -13.6%, O=C(c1cccn1-c1nnc(N2CCCC2)s1)N1CCN(c2ccc(Cl)cc2)CC1 -16.6%, COc1cc(C2Nc3c(C)cc(C)cc3-c3cc(C)nn32)cc(OC)c1O (stereo unspecified) -9.35%, Cc1ccc2c(c1)C(c1ccccc1)N(C(=O)Cc1ccc(F)cc1)CC(=O)N2 (stereo unspecified) -8.14%, CCCS(=O)(=O)NCCc1sc2nc(-c3ccc(F)cc3)nn2c1C -3.5%, Cc1cc(C)n(-c2nnc(Nc3ccc(C)c(Cl)c3)c3ccccc23)n1 -36.8%, Cn1c(=O)[nH]c2cc(-c3noc(-c4ccc(C#N)cc4)n3)ccc21 -8.07%, COc1ccc(Cn2c(C(=O)O)c(CNCCc3cc(OC)ccc3OC)c3ccc(C)cc32)cc1 -44.1%, COc1ccc(C2=NC(C)(C)N(CC(=O)Nc3cccc(C)c3)C2=O)cc1 -18.7%, CN(C)C(=O)c1c(NC(=O)c2ccccc2F)sc2c1CCCC2 -7.83%, CC(=O)Nc1ccc(S(=O)(=O)NCC2CCC(C(=O)NCCN(CC(C)C)CC(C)C)CC2)cc1 (stereo unspecified) -10.6%, O=C(COc1ccc2ccccc2c1)NC1CC(=O)N(c2cccc(F)c2)C1 (stereo unspecified) -10.7%, Nc1nc2ccc([N+](=O)[O-])cc2s1 5.18% [at 116 µM, percent change from vehicle, -100% = no light], Cc1ccc(S(=O)(=O)Nc2nc3n(n2)C(c2ccc(F)cc2)C=C(c2ccccc2)N3)cc1 (stereo unspecified) -24.1%, CC1=C(C(=O)Nc2ccc(Cl)cc2)C(CC(C)C)n2nc(SCc3ccccc3C)nc2N1 (stereo unspecified) -11.8%, CCOc1ccc(CCNC(=O)c2cnc3sc(N4CCCC4)nn3c2=O)cc1 -31.2%, COc1ccc(NS(=O)(=O)c2ccc3[nH]c4c(c3c2)CCCC4)cc1OC -47.3%, Cc1ccc(C)c(NC(=O)c2ccc(CN3CC(=O)N4CCCCC4C3=O)cc2)c1 (stereo unspecified) -5.24%, CC(=O)Nc1ccc(NC(=O)c2ccc3c(c2)N(Cc2cccc(Cl)c2)C(=O)c2ccccc2S3(=O)=O)cc1 -27.2%, CCOC(=O)C(C)Sc1ccc2nnc(CCNS(=O)(=O)c3ccccc3)n2n1 (stereo unspecified) -4.51%, CCn1c(CN2CCCCC2)nc2cc(NC(=O)c3cc(OC)c(OC)c(OC)c3)ccc21 -14%, CN(Cc1ccccc1)C(=O)c1nc(-c2ccc(Cl)cc2)n2c1CCCCC2 -15.4%
